# PMC12136788
# The list shows a part of the results.
# T1: UNK ZnF1-3 (human, UniProt Q9C0B0 31-174)
# T1 sequence: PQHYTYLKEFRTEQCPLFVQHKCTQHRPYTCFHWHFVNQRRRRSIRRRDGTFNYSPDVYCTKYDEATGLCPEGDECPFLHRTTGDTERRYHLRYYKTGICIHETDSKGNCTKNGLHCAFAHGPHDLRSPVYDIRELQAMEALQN
# B1: chr19:3053611:3053612:-_ENSG00000104964_ENST00000327141|hu_hu|motif|central (ssRNA)
# RNA: GGGAGUUCUACAGUCCGACGAUCCUCCCAUCUGACCCUCCAGGCCUUAGCUUGCCUCACAUGUCAGGGCAGGUAUCCACCGGACCAGGCUGCAGGGGAGGAGGAGGGAAGCCGGGAAUGGGGUAGGAAGAAAGCUAGAGGUGGCAACAGAGGAUUGAGCAUCA
# B2: 110352183_110353940_588_CDS_ENSMUSG00000020623_ENSMUST00000020949|mouse|control|control (ssRNA)
# RNA: GGGAGUUCUACAGUCCGACGAUCGAAGAGUGCACCGUAGAAGGUCACGGUGAAUGGACAGUCCACCGUCCUCAUGGAGACAUCCAAAUCCAUCAGCAGCCGUUUCUGUUCCUGGCUAUUAACUGUGGCCCGUAUCCGCUUCACCAACAGAGGAUUGAGCAUCA
# B3: chr11:5855929:5855930:+_ENSMUSG00000002741_ENSMUST00000002818|mus_mus|FALSE|FALSE (ssRNA)
# RNA: GGGAGUUCUACAGUCCGACGAUCACACGUCGUACGCGGCCUUGAGCAGCACCGCUUUCGGAUCGCCUUUGUAAAGGACACUAAGGCUGUACAGCUUCAUGGCGCCGCACCUUCGGGCCGCCGGCUGAGCCCCAGACCCGCUCCCAACAGAGGAUUGAGCAUCA
# B4: 22464774_22465537_902_CDS_ENSG00000158941_ENST00000389279|human|control|control (ssRNA)
# RNA: GGGAGUUCUACAGUCCGACGAUCAAAUCUGUUCAGGUGGCUCAGGUGAAGUGUGUGGGAUGUUUGGAAGAGACUCAGAGGCUUCUGAGGAAAGAGUGGGGGAAUCCGGUGAGGCUGGAAGAUCAACUGAGGCUGAGCUCCCAGCAACAGAGGAUUGAGCAUCA
# B5: chr7:140404665:140404666:+_ENSG00000090266_ENST00000247866|hu_hu|hu_hu_hu_mus_False|1_78 (ssRNA)
# RNA: GGGAGUUCUACAGUCCGACGAUCUGCUCCUACUCGUCCAGAGAGUUUACAGUGUCAGUCUUCAUCAUCAGGAGGGAUUCCCAGUUCUUCAUCUGUCCACUGUGAAGGAUCUGGAUAUGAAAAGUGACCCAGCACAGCUUCUGACAACAGAGGAUUGAGCAUCA
# B6: chr6:31383068:31383069:+_ENSMUSG00000025609_ENSMUST00000026699|mus_mus|FALSE|FALSE (ssRNA)
# RNA: GGGAGUUCUACAGUCCGACGAUCAGCUUUUUCAAUCAACUCCUCGCAAGCAUCAAAGUCACCCUUUAACACCAAUUUGUCAUGCAUAUCUGUCAACAUUGGAUGUUCCAGUGCAAUCUUGGUUUUCUUCUGCAGGGAUUCAAACAACAGAGGAUUGAGCAUCA
# B7: chr4:115894766:115894767:+_ENSMUSG00000028698_ENSMUST00000030464|mus_hu|mus_mus_mus_hu_True|38_68 (ssRNA)
# RNA: GGGAGUUCUACAGUCCGACGAUCUUCCACACGGAAAUGUACUUCGGGUUUUCCAACGGCCAGUACCGUCCAGCCAAAACUACCCGAACAGGGUCCUGUCCUCCUCUCCUACAGAACACAACAAAAUGCCCCCGAACUUUCAAGCAACAGAGGAUUGAGCAUCA
# B8: chr1:163295886:163295887:+_ENSG00000143228_ENST00000271452|hu_mus|FALSE|FALSE (ssRNA)
# RNA: GGGAGUUCUACAGUCCGACGAUCGGUUUUUGCCAUCUGCUCCUGUUAAUAAUUUAUUGCGAAUAUGAACCACAAGCUCAGCUACAUUGUAUCUGGGGAAUGACAAAGUUUCCAUUAUGGGAGUCUCCUCCCUGAGUAUUGUUGCAACAGAGGAUUGAGCAUCA
# B9: chr3:33703679:33703680:+_ENSMUSG00000027677_ENSMUST00000099153|mus_mus|motif|central (ssRNA)
# RNA: GGGAGUUCUACAGUCCGACGAUCUUCUAACUGCCCUCCCCUUUCUACAAGUGUCUGGCAGAGAUAUUUCCUUGCAUUCCGGUGAGUUGGGCAGUUUUCUAAUGCGAGCUCAAAAUCUUCUAUUGCUUUGUUUAGACUUCCUUUCAACAGAGGAUUGAGCAUCA
# B10: chr14:70590854:70590855:-_ENSMUSG00000022091_ENSMUST00000022682|mus_hu|FALSE|FALSE (ssRNA)
# RNA: GGGAGUUCUACAGUCCGACGAUCGAAGUCAAACUUGAGCCUGGCGGCCUUUCUCUUCUUCUCUUCCCUCCUGGCUGGGCUGCCCCCUCCGUUAGAGGCACUAGGGUCUCGGGUUGAGGAAGGGUAGACAAAGUCCCUCCGACCCAACAGAGGAUUGAGCAUCA
# B11: chr13:31722580:31722581:-_ENSG00000120694_ENST00000320027|hu_mus|FALSE|FALSE (ssRNA)
# RNA: GGGAGUUCUACAGUCCGACGAUCCGAGUCGUGGUUCCAGACCAGAGAUAUUGGAAAAGGAACUGCAUCGGUGACAGAGAACUCUCUAACUUUAAAUGCCGGAGAAAGAAUUGCACACUGCAGUGCACAGCCUCUGGCCACAGCCAACAGAGGAUUGAGCAUCA
# B12: chr8:126036873:126036874:-_ENSG00000164961_ENST00000318410|hu_hu|FALSE|FALSE (ssRNA)
# RNA: GGGAGUUCUACAGUCCGACGAUCAUGAGCAACUGAGUUUCUUUUCAUCUUCAAAUUCAUUUGUGAUGGUGGGAAGAUCUAAGGACAAUCCUUCCAUUGAAGAAGUAGGAAAAACAGUUACAGCACUGUUCUGAACUCAUCAAACAACAGAGGAUUGAGCAUCA
# B13: chr7:54823571:54823572:-_ENSG00000132432_ENST00000352861|hu_mus|hu_hu_hu_mus_False|98_108 (ssRNA)
# RNA: GGGAGUUCUACAGUCCGACGAUCUCCCAUUAUAGCAAAUCCUAUUGCUGUAGCCAUGGCAAUCUUCUGGAAUUCUUUUCUGUCGGGUUUGGUGCAUCUUUUAACCAGCCGAAUUGAGUCCUUUACAAACUGCCGGCUGGGCUCCAACAGAGGAUUGAGCAUCA
# B14: chr10:120825051:120825052:-_ENSG00000107581_ENST00000369144|hu_hu|motif|central (ssRNA)
# RNA: GGGAGUUCUACAGUCCGACGAUCAUCCAGAAGUCGAGCAAUAUCCGUACGCUCAGGAGUAAUAGGGAUGGAAAGAGUGGCGGAAAGGACUCUAGUAGACAUUCUUUGCAUCUCAUCUUGUGUGAGAUUCUUUCUCAUUUCUCUCAACAGAGGAUUGAGCAUCA
# Molecular target: T1, UNK ZnF1-3
# Test: nsRBNS (natural sequence RNA bind-n-seq); RBNS binding buffer (assumed for nsRBNS): 25 mM Tris pH 7.5, 150 mM KCl, 3 mM MgCl2, 0.01% Triton X-100, 500 ug/ml BSA, 20 U/ml SUPERase-In, 4 C; UNK is unkempt and MSI1 is Musashi-1; names of the RNAs are library labels; protein concentration not given here; high values mean tight binding
row,Binder,binding signal [enrichment R]
1,B1,1.09
2,B2,1.07
3,B3,0.517
4,B4,1.32
5,B5,1.35
6,B6,0.79
7,B7,0.951
8,B8,0.872
9,B9,0.31
10,B10,1.06
11,B11,0.872
12,B12,0.767
13,B13,0.602
14,B14,0.965
